In all, about 16,000 compounds went through this assay and about 120 (0.75%) were called active. Inconclusive results (about 4%) are left out. Calls follow the shape of the dose curve; as a rule, active = well fitted inhibition curve with a large enough effect; inconclusive = small, poorly fitted or top-dose-only effect; inactive = no such curve, though single readings can be large or run the other way. The list shows a part of the results.
Target: Rap guanine nucleotide exchange factor 3 (Homo sapiens) (UniProt O95398)
Experiment: Validation qHTS for antagonist of cAMP-regulated guanine nucleotide exchange factor 3 (EPAC1); also: nearly all actives have a fitted effect of over 75% in size;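 as to activity change, negative = inhibition: plate controls were DMSO for no effect and ATA control for full effect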
Conditions: EPAC1 Rap1B-BODIPY-GDP exchange, fluorescence; series mostly up to 150 µM; activity change, negative = inhibition: at the top concentration
Outline: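 Nucleotide exchange followed as fluorescence loss when BODIPY-GDP leaves Rap1B (480 nm excitation, 540 nm emission), read at 5 min intervals over 30 min. Reaction: 100 nM EPAC1, 250 nM RAP1B-BODIPY-GDP, 50 uM GDP; ATA and DMSO define normalization.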
Potency is read from the fitted curve at half-maximal effect.

Chain of UniProt O95398 (O95398 whole entry, looked up): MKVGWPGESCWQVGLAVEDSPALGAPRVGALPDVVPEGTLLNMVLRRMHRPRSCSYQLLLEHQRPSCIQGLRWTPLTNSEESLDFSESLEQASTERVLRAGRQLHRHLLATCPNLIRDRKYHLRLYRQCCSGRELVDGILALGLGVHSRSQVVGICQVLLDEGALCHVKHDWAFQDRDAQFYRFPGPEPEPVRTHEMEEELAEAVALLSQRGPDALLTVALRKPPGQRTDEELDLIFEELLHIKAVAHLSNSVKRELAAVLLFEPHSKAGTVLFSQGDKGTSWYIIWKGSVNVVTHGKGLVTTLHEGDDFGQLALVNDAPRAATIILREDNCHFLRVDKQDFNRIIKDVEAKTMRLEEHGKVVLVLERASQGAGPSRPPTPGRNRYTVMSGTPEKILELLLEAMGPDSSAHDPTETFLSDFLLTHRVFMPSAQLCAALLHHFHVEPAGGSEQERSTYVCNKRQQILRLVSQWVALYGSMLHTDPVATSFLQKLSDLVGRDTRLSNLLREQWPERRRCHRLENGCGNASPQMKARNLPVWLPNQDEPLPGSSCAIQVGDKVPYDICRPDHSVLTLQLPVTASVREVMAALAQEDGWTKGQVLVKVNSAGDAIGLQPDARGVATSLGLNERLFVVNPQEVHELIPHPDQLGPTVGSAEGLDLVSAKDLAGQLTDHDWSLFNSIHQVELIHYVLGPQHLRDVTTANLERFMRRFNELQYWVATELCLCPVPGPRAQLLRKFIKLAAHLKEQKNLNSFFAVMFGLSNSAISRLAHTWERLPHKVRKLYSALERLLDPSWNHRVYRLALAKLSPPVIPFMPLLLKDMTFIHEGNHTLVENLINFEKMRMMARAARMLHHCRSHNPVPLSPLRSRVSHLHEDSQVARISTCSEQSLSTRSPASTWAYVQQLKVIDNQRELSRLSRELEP

Row | Compound | activity change, negative = inhibition | Potency
1 | CC(O)CN(C)C (configuration not stated) | inactive: 17.5% | –
2 | COc1ccccc1CN1CCCC(n2cc(C(=O)N3CCCC3)nn2)C1 (configuration not stated) | inactive: 7.64% | –
3 | N#Cc1cccc(-c2nc(NCc3cccnc3)c3ccccc3n2)c1 | inactive: 5.07% | –
4 | COC(=O)C1=CO[C@@H](O[C@H]2OC(CO)C(O)C(O)C2O)C2C1CC(O)C2C (some centres not stated) | inactive: 21.5% | –
5 | CS(=O)(=O)N1CCC[C@@]2(CCN(Cc3ccc(C#N)cc3)C2)C1 | inactive: 24% | –
6 | COc1ccc(CNc2ncncc2-c2ccccc2Cl)c(OC)c1 | inactive: -24.8% | –
7 | O[Si](CCCN1CCCCC1)(c1ccc(F)cc1)C1CCCCC1 (configuration not stated) | inactive: 8.98% [at 75.8 µM] | –
8 | c1ccc(N2CCN(CCCOc3ccc4c(c3)OCO4)CC2)cc1 | inactive | –
9 | O=C(C1CCCCC1)N(CCN1CCN(c2ccccc2CO)CC1)c1ccccn1 | inactive: 5.35% | –
10 | Cc1cc2c(cc1C)NC1(C[C@H]3CCC(=O)N4CC[C@@H](C1)[C@@H]34)C(=NC(C)(C)CC(C)(C)C)N2 (some centres not stated) | inactive: -27.7% | –
11 | CC(C)C[C@@H](CO)N1CCN(CC(C)C)CCC1=O | inactive | –
12 | CC1CN(CCC(=O)N2CCCC(C(=O)c3nccn3C)C2)Cc2cc(Cl)ccc2O1 (configuration not stated) | inactive: 17% | –
13 | Fc1ccc(Nc2nc(-c3ccoc3)nc3ccccc23)cc1 | inactive: 17.3% | –
14 | O=c1cc(-c2cc3ccccc3oc2=O)c2ccc(O)cc2o1 | inactive: 9.67% | –
15 | CNc1nc(-c2ccccc2CN(C)C)nc2ccccc12 | inactive: 19% | –
16 | FC(F)(F)c1ccccc1-c1nc(NCc2cccs2)c2ccccc2n1 | inactive: -17.8% | –
17 | CC(C)=CCc1c(O)cc2occ(-c3ccc4c(c3)OCO4)c(=O)c2c1O | inactive: -9.03% | –
18 | O=S(=O)(c1ccccc1)N1CCC[C@@]2(CCN(c3ncccn3)C2)C1 | inactive: 19.2% | –
19 | NC(CCC(=O)NCS(=O)(=O)O)C(=O)O (configuration not stated) | inactive: 16.6% | –
20 | N[C@@H](C(=O)O)c1ccc(O)c(C(=O)O)c1 | inactive: 6.82% | –
21 | Cc1cc(CC(C)CC(C)(C)C)n(O)c(=O)c1 (configuration not stated) (tested in a mixture with another compound) | inactive: -1.43% | –
22 | COc1ncc2nc(C)c(=O)n(-c3ccccc3)c2n1 | inactive: -2.6% | –
23 | OC1(c2cccnc2)CCN(Cc2ccc3c(c2)CN(Cc2cc4ccccc4s2)CCO3)CC1 | inactive: -8.5% | –

Row | Compound | activity change, negative = inhibition | Potency
24 | C1=C/C(=C2/C=Cc3ccccc32)c2ccccc2N1 | inactive: 10.6% | –
25 | CCn1cc(C(=O)O)c(=O)c2cc(F)c(N3CCNCC3)cc21 | inactive | –
26 | COc1ccc(CNc2nc(-c3ccccc3CN(C)C)nc3ccccc23)c(OC)c1 | inactive: 1.05% | –
27 | CC1C(=O)CC2C3(C)CCC2(C(C)C(=O)O)C(=O)C13 (configuration not stated) | inactive: 17.4% | –
28 | CN1CCN(c2nc(-c3cccc(C#N)c3)nc3ccccc23)CC1 | inactive: 19.4% | –
29 | N#Cc1cccc(CN2CCC(=O)N([C@H](CO)c3ccccc3)CC2)c1 | inactive: 0.517% | –
30 | Cc1ccc(F)cc1S(=O)(=O)NCc1nc(N2CCCC2)c2cccc(C)c2n1 | inactive: 5.1% | –
31 | COc1cccc(Cc2nc3cccnc3n2C2CCN(Cc3ccc(C)s3)CC2)c1 | inactive: 15.4% | –
32 | N[C@H](C(=O)O)[C@H](Cc1ccccc1)C(=O)O | inactive: 3.71% [at 75.8 µM] | –
33 | Cc1cc(C)cc(C(=O)NCCn2cc(C(=O)N3CCSCC3)nn2)c1 | inactive: 1.45% | –
34 | CC(=O)OC[C@@]1(O)C[C@@]23CC[C@@H]4c5ccoc5CC[C@@]4(C)[C@@H]2CCC1C3 | inactive: 29.2% | –
35 | O=C1C[C@H](c2ccccc2)Oc2cc(O)cc(O)c21 | inactive: 7.73% | –
36 | O=S(=O)(c1ccccc1)N1CCC2(CCN(c3cccc(-c4ccccc4)c3)CC2)CC1 | inactive: 15% | –
37 | Cc1nc(C)n(CC(=O)NCC2Cc3cc(-c4cccc(OC(F)(F)F)c4)ccc3O2)n1 (configuration not stated) | inactive: -16% | –
38 | CN1CCN(c2ncnc3ccc(-c4ccccc4C#N)cc23)CC1 | inactive: 25% | –
39 | COc1cccc(C(=O)N2CCc3c(C(=O)NC(C)c4ccco4)c(OC)cc(=O)n3CC2)c1OC (configuration not stated) | inactive: 3.99% | –
40 | COc1ccc2[nH]cc(CCNc3ncnc4ccc(-c5cccnc5)cc34)c2c1 | inactive: -7.06% | –
41 | NC(=O)C[C@@H](N)C(=O)O | inactive: 20.1% | –
42 | COc1ccc(-n2c(=O)c(-c3cccs3)nc3cnc(Nc4cccc(OC)c4)nc32)cc1 | inactive: 66.3% | –
43 | CCCCCCCCCCCCCCCCC(C(=O)O)C(O)(CC(=O)O)C(=O)O (configuration not stated) | – | active: 35.5 µM
44 | Cc1nc2c(OCc3ccccc3)cccn2c1CC#N | inactive | –
45 | COCCC1CCCCN1Cc1nc(N2CCCCC2)c2cc(OC)c(OC)cc2n1 (configuration not stated) | inactive: 14.3% | –
46 | c1cncc(OC2CCN(Cc3ccc4c(c3)CN(Cc3nc5ccccc5s3)CCO4)CC2)c1 | inactive: 11% | –

Row | Compound | activity change, negative = inhibition | Potency
47 | COCc1c(C(=O)N2CCCCCC2)cnn1-c1nccc(-c2cccs2)n1 | inactive: 14.5% | –
48 | COc1ccccc1/C=C\C(=O)O | inactive: 8.81% | –
49 | COC(=O)N1CCC2(CCCN(Cc3ccccc3)C2)CC1 | inactive: 5.96% | –
50 | CCOC(=O)C1=C(C)NC(C)=C(C(=O)OC)C1c1cccc([N+](=O)[O-])c1 (configuration not stated) | inactive | –
51 | COCCOC(=O)C1=C(C)NC(C)=C(C(=O)OC(C)C)[C@@H]1c1cccc([N+](=O)[O-])c1 | inactive: -24.9% | –
52 | CCCOc1ccc2nc(NC(=O)OC)[nH]c2c1 | inactive: 8.3% | –
53 | FC(F)(F)c1cnc(-c2cc3c(c(OCC4CCCO4)c2)OCCN(Cc2cccn2-c2nccs2)C3)c(Cl)c1 (configuration not stated) | inactive: 11% | –
54 | Cc1cccc(CNc2cc(-c3ccoc3)ncn2)c1 | inactive: 12.8% | –
55 | CC1CCC2C(C)(C)C3CC12CC[C@]3(C)O (some centres not stated) | inactive: -7.3% | –
56 | Cc1ccc(SC[C@H](C)CN2CC[C@H](C(C)(C)C)CCC2=O)cc1 | inactive: -9.39% | –
57 | CN1CCN(c2ncc3nc(-c4ccc(F)cc4)c(=O)n(Cc4cccs4)c3n2)CC1 | inactive: -5.94% | –
58 | CCCCNC(=O)[C@@H]1CC=C[C@@H]2CCN(Cc3ccccc3)C(=O)[C@@H]21 | inactive: 7.23% | –
59 | CN[C@@H]1[C@@H](O)[C@@H](O[C@@H]2[C@H](O)[C@H](O[C@H]3OC(CN)=CC[C@H]3N)[C@@H](N)C[C@H]2N)OCC1(C)O (some centres not stated) | inactive: 20.3% | –
60 | COC(=O)/C(=C1\OC(=O)C(c2ccccc2)C1=O)c1ccccc1 (configuration not stated) | inactive: 13.4% | –
61 | COc1cc2ccc(=O)oc2c(O)c1OCC=C(C)C | inactive: -4.98% | –
62 | COC(=O)[C@@H]1CCCN1Cc1ccc2c(c1)CN(Cc1ccc3c(c1)OCCO3)CCO2 | inactive: -8.07% | –
63 | CCCCOc1ccc(OCCCN2CCOCC2)cc1 | inactive | –
64 | CC1CCc2cc(F)cc3c(=O)c(C(=O)O)cn1c23 (configuration not stated) | inactive: 13.3% | –
65 | O=C(NCC1CCCCN1)c1cc(OCC(F)(F)F)ccc1OCC(F)(F)F (configuration not stated) | inactive | –
66 | COc1cc2c(cc1OC)-c1c(oc3cc(O)cc(O)c3c1=O)CO2 | inactive: -3.34% | –
67 | OC[C@@H](O)[C@H](O)[C@H](O)[C@@H](O)CO | inactive | –
